# Test results reported in the RNAGym collection of RNA variant scans (doi:10.1073/pnas.2313332121).
# Variants at the floor of the assay are shown more often than the library holds them.
# B1: TPR 5TU (parent)
# chain: GGAUCUUCUCGAUCUAACAAAAAAGACAAAUCUGCCACAAAGCUUGAGAGCAUCUUCGGAUGCAGAGGCGGCAGCCUUCGGUGGCGCGAUAGCGCCAACGUUCUCAACUAUGACACGCAAAACGCGUGCUCCGUUGAAUGGAGUUUAUCAUG
# Variants of: B1
# Assay: polymerase ribozyme fitness, log enrichment relative to wild type (log ratio); higher = more active; in vitro selection for triplet polymerase activity
# Outline: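 Each subunit of a heterodimeric triplet polymerase ribozyme was represented by a PCR-built, transcribed mutant library that underwent triplicate single-round in vitro selection with frozen incubation at −7 °C. Extended constructs were recovered by gel excision, streptavidin-bead capture and RT-PCR, and Illumina sequencing of input and output libraries kept genotypes with ≥10 input reads and ≥1 read per output. Fitness is the logarithm of genotype enrichment relative to wild-type enrichment, from inverse-variance-weighted replicate averages, with a logarithm base of 2.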
row,Variant,polymerase ribozyme fitness (log ratio)
1,G58A U61A G88C G133U,≤ -4.2
2,G58C C85A,-3.71
3,G58C G83C G117C,-0.409
4,G58U U61A A91G G94A,≤ -4.2
5,G58U A64G C85A C105A A107C A119C U134C,≤ -4.2
6,G58A A91U,≤ -4.2
7,G59A A64C C69U,≤ -4.2
8,G58U C85U G117A A121G G136U G143C,≤ -4.2
9,G58C G59U G81U C87G,≤ -4.2
10,G58C A107C A150U,≤ -4.2
11,G59A C85U A113U G133C U151A,≤ -4.2
12,G59A G70U C93G A113U,≤ -4.2
13,G59A G71A G117C,-3.56
14,G59A A60C G80U A147C,≤ -4.2
15,G59A C79G C93G A98G,≤ -4.2
16,G58C A66C G86A U90A C99A C105A C116U,≤ -4.2
17,G58C A60G G67A C69A G92U G112A G143C,≤ -4.2
18,G58A U82C G92C A110U G136A,≤ -4.2
19,G58C G86U U102A A138G,≤ -4.2
20,G58U A110G A113U G136U,≤ -4.2
21,G58A C96A A97G A106C A119U,-1.42

row,Variant,polymerase ribozyme fitness (log ratio)
1,G58C A60U C79A A137G U145G,≤ -4.2
2,G58C A73G G88A C114U U151C,≤ -4.2
3,G59A G74A A91G C118G,≤ -4.2
4,G59A C69A G86U A89C C95G,≤ -4.2
5,G58C C87U U135A,-2.15
6,G58A C75U A91G C95G,≤ -4.2
7,G58C A122U A142G G143A,-4.05
8,G58C U102A C114A,-4.12
9,G58C A107C,-4.06
10,G58A U90A C125G,≤ -4.2
11,G58C G83U,-2.88
12,G58C G86C A89U,-3.91
13,G58U G86A U130C,0.803
14,G58A G74A G94U G140U G141A,≤ -4.2
15,G58U C95U,-0.414
16,G58C C79U C85A G88U C96U A110G,≤ -4.2
17,G58A G86C G94A C95G A106G A107G A122G,≤ -4.2
18,G58A A147U,0.692
19,G59A C93U,-3.33
20,G58A C63U G80A C93A C96U,≤ -4.2
21,G58U G67U G84U A97U G117A G126A G141A A150G,≤ -4.2

row,Variant,polymerase ribozyme fitness (log ratio)
1,G59A A110U,-3.64
2,G59A C76G,≤ -4.2
3,G58C C72U G80C G124A G133U U139G G140U C149U,≤ -4.2
4,G58A G71A C116G U139G U145G,≤ -4.2
5,G58C G68A,-3.97
6,G58A G68A U78C C85U G143U,≤ -4.2
7,G58C A91C C125G,≤ -4.2
8,G59A C85A A115G C123U,-2.65
9,G58C A119C,-0.0646
10,G58C U111G C116A A137C,≤ -4.2
11,G59A C85G C99U A120G,≤ -4.2
12,G58C G140C,-4.02
13,G58A G117U,1.04
14,G58C U61A A64U U77A C95G U102C,≤ -4.2
15,G58C A137G G140C,≤ -4.2
16,G59A G62C C108U,≤ -4.2
17,G59A A137U G141C,-3.95
18,G59A C95U C103G,-2.47
19,G58A C76G U139A,≤ -4.2
20,G58A C75G C76U U134A,≤ -4.2
21,G58C G83C G84A C93A C118A U135G,≤ -4.2

row,Variant,polymerase ribozyme fitness (log ratio)
1,G59A G74U C93G C96U,≤ -4.2
2,G59A C125A,0.12
3,G58C C87G U144C,≤ -4.2
4,G58C U78G C85G A106U A113G U144C,≤ -4.2
5,G58A U90C C95U A98G A110C A113U,≤ -4.2
6,G58C A89U C95A G126U,-0.892
7,G58C U61C G86C C95U U144A,≤ -4.2
8,G58A G83A C87U U101G G141C,-3.39
9,G59A C72A U135A G143C,≤ -4.2
10,G58C G83A G84U G92U U135A U139G G141A,≤ -4.2
11,G58U C105U U134A A137U U144A,≤ -4.2
12,G58C G59U G70C C85U A121U U139A,≤ -4.2
13,G59A G68C C75G G83C A91C C114A A147C,≤ -4.2
14,G58C C79U C85U C93U A113G,≤ -4.2
15,G58U U61C G88A U127C C131G,≤ -4.2
16,G58U G94U G140U,-3.9
17,G58C C79G A107G,≤ -4.2
18,G58U G65U C69A G136U A137U,≤ -4.2
19,G58C G70C C87A,≤ -4.2
20,G58A G59A C96A,0.0408
